Reference: the supplement of paper PMC8728848
The other results are listed elsewhere or left out.

Key:
Experiment in all cases: glycan array binding signal (z-score within array); higher = stronger binding
Settings in all cases: glycan notation: IUPAC condensed, linker removed; mutation: E41G
[1] = target: Gal(a1-3)Gal(b1-4)GlcNAc
Summary of the method: (§1)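 Glycan array data came from 3228 arrays in the Consortium for Functional Glycomics database, and only arrays with an available protein sequence were kept. Glycan names were put into IUPAC-condensed notation, and columns mapping to the same glycan were averaged. The binding signal is a within-array Z-score, averaged across arrays of one protein sequence run at different concentrations or buffers and across linkers. A negative Z-score can be read as non-binding.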

[2] = target: Gal(a1-3)Gal(b1-4)GlcNAc(b1-2)Man
Summary of the method: as §1

[3] = target: Gal(a1-3)Gal(b1-4)GlcNAc(b1-2)Man(a1-3)[Gal(a1-3)Gal(b1-4)GlcNAc(b1-2)Man(a1-6)]Man(b1-4)GlcNAc(b1-4)GlcNAc
Summary of the method: as §1

[4] = target: Gal(a1-3)Gal(b1-4)GlcNAc(b1-3)GalNAc
Summary of the method: as §1

[5] = target: Gal(a1-3)Gal(b1-4)GlcNAc(b1-6)GalNAc
Summary of the method: as §1

[6] = target: Gal(a1-3)Gal(b1-4)[Fuc(a1-3)]GlcNAc
Summary of the method: as §1

[7] = target: Gal(a1-3)Gal(b1-4)[Fuc(a1-3)]GlcNAc(b1-2)Man(a1-3)[Gal(a1-3)Gal(b1-4)[Fuc(a1-3)]GlcNAc(b1-2)Man(a1-6)]Man(b1-4)GlcNAc(b1-4)GlcNAc
Summary of the method: as §1

[8] = target: Gal(a1-3)GalNAc
Summary of the method: as §1

[9] = target: Gal(a1-3)[Gal(a1-4)]Gal(b1-4)GlcNAc
Summary of the method: as §1

[10] = target: Gal(a1-4)Gal(b1-3)GlcNAc(b1-2)Man(a1-3)[Gal(a1-4)Gal(b1-3)GlcNAc(b1-2)Man(a1-6)]Man(b1-4)GlcNAc(b1-4)GlcNAc
Summary of the method: as §1

[11] = target: Gal(a1-4)Gal(b1-4)Glc
Summary of the method: as §1

[12] = target: Gal(a1-4)Gal(b1-4)GlcNAc
Summary of the method: as §1

[13] = target: Gal(a1-4)Gal(b1-4)GlcNAc(b1-2)Man(a1-3)[Gal(a1-4)Gal(b1-4)GlcNAc(b1-2)Man(a1-6)]Man(b1-4)GlcNAc(b1-4)GlcNAc
Summary of the method: as §1

[14] = target: Gal(a1-4)Gal(b1-4)GlcNAc(b1-3)Gal(b1-4)Glc
Summary of the method: as §1

[15] = target: Gal(a1-4)GlcNAc
Summary of the method: as §1

[16] = target: Gal(a1-6)Glc
Summary of the method: as §1

[17] = target: Gal(b1-2)Gal
Summary of the method: as §1

[18] = target: Gal(b1-3)Gal
Summary of the method: as §1

[19] = target: Gal(b1-3)Gal(b1-4)GlcNAc
Summary of the method: as §1

[20] = target: Gal(b1-3)GalNAc
Summary of the method: as §1

[21] = target: Gal(b1-3)GalNAc(a1-3)[Fuc(a1-2)]Gal(b1-4)Glc
Summary of the method: as §1

[22] = target: Gal(b1-3)GalNAc(a1-3)[Fuc(a1-2)]Gal(b1-4)GlcNAc
Summary of the method: as §1

[23] = target: Gal(b1-3)GalNAc(b1-3)Gal
Summary of the method: as §1

[24] = target: Gal(b1-3)GalNAc(b1-3)Gal(a1-4)Gal(b1-4)Glc
Summary of the method: as §1

[25] = target: Gal(b1-3)GalNAc(b1-4)Gal(b1-4)Glc
Summary of the method: as §1

[26] = target: Gal(b1-3)GalNAc(b1-4)[Neu5Ac(a2-3)]Gal(b1-4)Glc
Summary of the method: as §1

[27] = target: Gal(b1-3)GlcNAc
Summary of the method: as §1

[28] = target: Gal(b1-3)GlcNAc(a1-3)Gal(b1-4)GlcNAc
Summary of the method: as §1

[29] = target: Gal(b1-3)GlcNAc(a1-6)Gal(b1-4)GlcNAc
Summary of the method: as §1

[30] = target: Gal(b1-3)GlcNAc(b1-2)Man
Summary of the method: as §1

[31] = target: Gal(b1-3)GlcNAc(b1-2)Man(a1-3)[Gal(b1-3)GlcNAc(b1-2)Man(a1-6)]Man(b1-4)GlcNAc(b1-4)GlcNAc
Summary of the method: as §1

[32] = target: Gal(b1-3)GlcNAc(b1-2)Man(a1-3)[Gal(b1-3)GlcNAc(b1-2)Man(a1-6)]Man(b1-4)GlcNAc(b1-4)[Fuc(a1-6)]GlcNAc
Summary of the method: as §1

[33] = target: Gal(b1-3)GlcNAc(b1-2)Man(a1-3)[GlcNAc(b1-4)][Gal(b1-3)GlcNAc(b1-2)Man(a1-6)]Man(b1-4)GlcNAc(b1-4)GlcNAc
Summary of the method: as §1

[34] = target: Gal(b1-3)GlcNAc(b1-2)[Gal(b1-3)GlcNAc(b1-6)]Man(a1-6)[Gal(b1-3)GlcNAc(b1-2)Man(a1-3)]Man(b1-4)GlcNAc(b1-4)GlcNAc
Summary of the method: as §1

[35] = target: Gal(b1-3)GlcNAc(b1-3)Gal(b1-3)GlcNAc
Summary of the method: as §1

[36] = target: Gal(b1-3)GlcNAc(b1-3)Gal(b1-4)Glc
Summary of the method: as §1

[37] = target: Gal(b1-3)GlcNAc(b1-3)Gal(b1-4)GlcNAc
Summary of the method: as §1

[38] = target: Gal(b1-3)GlcNAc(b1-3)Gal(b1-4)GlcNAc(b1-2)Man(a1-3)[Gal(b1-3)GlcNAc(b1-3)Gal(b1-4)GlcNAc(b1-2)Man(a1-6)]Man(b1-4)GlcNAc(b1-4)GlcNAc
Summary of the method: as §1

[39] = target: Gal(b1-3)GlcNAc(b1-3)Gal(b1-4)GlcNAc(b1-2)[Gal(b1-3)GlcNAc(b1-3)Gal(b1-4)GlcNAc(b1-6)]Man(a1-6)[Gal(b1-3)GlcNAc(b1-3)Gal(b1-4)GlcNAc(b1-2)Man(a1-3)]Man(b1-4)GlcNAc(b1-4)[Fuc(a1-6)]GlcNAc
Summary of the method: as §1

[40] = target: Gal(b1-3)GlcNAc(b1-3)Gal(b1-4)GlcNAc(b1-3)Gal(b1-4)GlcNAc(b1-2)[Gal(b1-3)GlcNAc(b1-3)Gal(b1-4)GlcNAc(b1-3)Gal(b1-4)GlcNAc(b1-6)]Man(a1-6)[Gal(b1-3)GlcNAc(b1-3)Gal(b1-4)GlcNAc(b1-3)Gal(b1-4)GlcNAc(b1-2)Man(a1-3)]Man(b1-4)GlcNAc(b1-4)[Fuc(a1-6)]GlcNAc
Summary of the method: as §1

[41] = target: Gal(b1-3)GlcNAc(b1-3)Gal(b1-4)GlcNAc(b1-6)[Gal(b1-3)GlcNAc(b1-3)]Gal(b1-4)Glc
Summary of the method: as §1

[42] = target: Gal(b1-3)GlcNAc(b1-3)Gal(b1-4)[Fuc(a1-3)]GlcNAc
Summary of the method: as §1

[43] = target: Gal(b1-3)GlcNAc(b1-3)Gal(b1-4)[Fuc(a1-3)]GlcNAc(b1-6)[Gal(b1-3)GlcNAc(b1-3)]Gal(b1-4)Glc
Summary of the method: as §1

[44] = target: Gal(b1-3)GlcNAc(b1-3)GalNAc
Summary of the method: as §1

[45] = target: Gal(b1-3)GlcNAc(b1-6)Gal(b1-4)GlcNAc
Summary of the method: as §1

B1: CVN-E41G (protein)
chain: MHHHHHHENLYFQSGNFSQACYNSAIQGSVLTSTCIRTNGGYNTSSIDLNSVIGNVDGSLKWQGSNFIETCRNTQLAGSSELAAECKTRAQQFVSTKINLDDHIAAIDGTLKYE
glycan array binding signal (z-score) [1]: -0.162
glycan array binding signal (z-score) [2]: -0.115
glycan array binding signal (z-score) [3]: -0.126
glycan array binding signal (z-score) [4]: -0.166
glycan array binding signal (z-score) [5]: -0.176
glycan array binding signal (z-score) [6]: -0.174
glycan array binding signal (z-score) [7]: -0.004
glycan array binding signal (z-score) [8]: -0.162
glycan array binding signal (z-score) [9]: -0.13
glycan array binding signal (z-score) [10]: 0.053
glycan array binding signal (z-score) [11]: -0.124
glycan array binding signal (z-score) [12]: -0.126
glycan array binding signal (z-score) [13]: -0.161
glycan array binding signal (z-score) [14]: -0.158
glycan array binding signal (z-score) [15]: -0.157
glycan array binding signal (z-score) [16]: -0.166
glycan array binding signal (z-score) [17]: -0.147
glycan array binding signal (z-score) [18]: -0.141
glycan array binding signal (z-score) [19]: -0.14
glycan array binding signal (z-score) [20]: -0.158
glycan array binding signal (z-score) [21]: -0.175
glycan array binding signal (z-score) [22]: -0.167
glycan array binding signal (z-score) [23]: 0.005
glycan array binding signal (z-score) [24]: -0.154
glycan array binding signal (z-score) [25]: -0.172
glycan array binding signal (z-score) [26]: -0.168
glycan array binding signal (z-score) [27]: -0.169
glycan array binding signal (z-score) [28]: -0.176
glycan array binding signal (z-score) [29]: -0.185
glycan array binding signal (z-score) [30]: -0.09
glycan array binding signal (z-score) [31]: 0.069
glycan array binding signal (z-score) [32]: -0.141
glycan array binding signal (z-score) [33]: 0.461
glycan array binding signal (z-score) [34]: 0.155
glycan array binding signal (z-score) [35]: -0.13
glycan array binding signal (z-score) [36]: -0.117
glycan array binding signal (z-score) [37]: -0.161
glycan array binding signal (z-score) [38]: 0.006
glycan array binding signal (z-score) [39]: 1.02
glycan array binding signal (z-score) [40]: 0.772
glycan array binding signal (z-score) [41]: -0.146
glycan array binding signal (z-score) [42]: -0.132
glycan array binding signal (z-score) [43]: -0.181
glycan array binding signal (z-score) [44]: -0.144
glycan array binding signal (z-score) [45]: -0.189
